This is an account of results in ChEMBL document CHEMBL4888484, “Replenishing the malaria drug discovery pipeline: Screening and hit evaluation of the MMV Hit Generation Library 1 (HGL1) against asexual blood stage Plasmodium falciparum ,using a nano luciferase reporter read-out” (2022).

Screen size: about 150,000 compounds; about 540 (0.36%) showed an effect of 50% or more. The list shows a part of the results.

The test system of this test is Plasmodium falciparum. Description: Primary screen in NF54 nanoGlo assay, in single point, at 2uM, 72h; a lower Z score goes with more inhibition. To be noted: timepoint 72 hour. It is filed as functional, Erythrocyte.
For orientation: % Inhibition means the relative decrease from the control value, in per cent. Consider `CCCCN(C)C(=O)c1cn(CCc2ccccn2)cc(C(=O)NC2CCCCCCC2)c1=O`, for which the “% Inhibition” value is recorded as -15% and the Z score is 1.89.
The corresponding values for `CC(C)N(C(=O)Cc1cc(-c2ccccc2)on1)c1cccnc1` are 6% and -0.85.
The like results for `CCN(CCO)C(=O)NC1CCCCCCC1` were, in that order, -1% and 0.11.
With `COc1cccc(F)c1C(=O)N1CCC2(CC1)[C@H](O)C[C@@H]2OC`, the “% Inhibition” value was -5% and the Z score is recorded as 0.99.
The corresponding values for `Cc1ccccc1[C@H]1C[C@@H](O)[C@@H](O)[C@@H]1NS(C)(=O)=O` are -8% and 1.34.
The like results for `CS(=O)(=O)Nc1ccc(F)c(NC(=O)N[C@H]2CCCC[C@@H]2O)c1` were, in that order, -7% and 1.02.
The like results for `CCC(CC)NC(=O)COc1cccc(C)c1` were, in that order, -3% and 0.33.
For `Cc1[nH]ncc1S(=O)(=O)NC[C@H](C)Oc1ccccc1`, the “% Inhibition” value is recorded as -3% and the Z score came out at 0.33.
The corresponding values for `CCOCCc1nc(-c2cccc(N3CCNC3=O)c2)n(C)n1` are 7% and -0.6.
For the molecule `Cc1cc(C)c(N2C(=O)c3ccc(C(=O)NCc4cccnc4)cc3C2=O)c(C)c1`, the “% Inhibition” value is listed as -6% and the Z score worked out at 1.23.
The like results for `Cc1ccc(C(F)(F)F)cc1C(=O)N1CCC2(CCNC(=O)CC2)CC1` were, in that order, 6% and -0.56.
The like results for `O=C(N[C@H]1CCN(Cc2ccc3cccc(F)c3n2)C[C@@H]1O)c1ccncc1` were, in that order, -4% and 0.69.
The like results for `CCn1nc(C)c(CN(C)S(=O)(=O)c2ccc(N3CCCC3=O)cc2)c1C` were, in that order, 32% and -4.57.
In the case of `Cc1cccc(CN2CCN(c3ccc(-c4ccccc4)cc3)C(=O)[C@@H]2C)c1`, the “% Inhibition” value was -8% and the Z score is 1.3.
`COCCN1C[C@]2(CCCN(c3cc(C)ccn3)C2)CCC1=O`: the “% Inhibition” value is recorded as -3% and the Z score is reported as 0.41.
Take `COc1ccc(N2CCN(C(=O)c3cc(C4CC4)[nH]n3)CC2)cc1`: the “% Inhibition” value is on record as -8% and the Z score was found to be 0.73.
The like results for `Cc1cccn(CC(=O)NC2CCOCC2)c1=O` were, in that order, 7% and -0.94.
The corresponding values for `O=S(=O)(NC[C@@H](c1cccs1)N1CCc2ccccc2C1)c1ccc(Cl)cc1` are -16% and 2.07.
The like results for `COc1ncc(-c2nc(-c3ccsc3)no2)c(C)n1` were, in that order, -5% and 0.55.
On to `CCN1CCC([C@H]2c3nccn3CCCN2CCc2ccccc2)CC1`, for which the “% Inhibition” value is listed as 5% and the Z score is -0.72.
The like results for `CC1(C(=O)O)CCN(C(=O)N[C@H]2CCN(c3ccc(F)c(Cl)c3)C2)CC1` were, in that order, -6% and 0.63.
The like results for `CC(C)(C)CNC1(Cc2cc(-c3ccccn3)on2)COC1` were, in that order, 12% and -1.39.
In the case of `O=C(NCc1cccnc1N1CCOCC1)N1CCC(CO)CC1`, the “% Inhibition” value is listed as -8% and the Z score worked out at 1.19.
The corresponding values for `Cn1cc(C(=O)NC2CC(O)c3ccccc32)ccc1=O` (stereo not given) are -20% and 2.94.
The like results for `CC(C)C1CN(C(=O)C23CC(C(F)(F)F)(C2)C3)C1` were, in that order, -10% and 0.96.
The corresponding values for `Cc1cc(F)cc(CN2[C@@H]3CN(CCC(C)C)C[C@@H]3OCCS2(=O)=O)c1` are -10% and 1.82.
As for `CC(C)C(=O)N1CCOc2ccc(CN3CCCCC3)cc2C1`, the “% Inhibition” value is reported as -10% and the Z score worked out at 1.1.
The like results for `CC(C)C(=O)N1CCc2ccc(OC(C)C(=O)N(C)Cc3ccco3)cc2C1c1ccccc1` (stereo not given) were, in that order, -12% and 1.69.
`CC(C)Cc1cc(CN2Cc3ncccc3C2=O)on1`: the “% Inhibition” value worked out at 2% and the Z score is listed as -0.35.
The like results for `C=C(C)CNC(=O)NC1CC(F)(F)C1` were, in that order, -1% and 0.12.
Consider `Cc1cccc(N2C(=O)C3C4c5ccccc5C(C)(c5ccccc54)[C@@H]3C2=O)c1` (stereo not given in full), for which the “% Inhibition” value is listed as 5% and the Z score is given as -0.48.
The corresponding values for `COc1ccc(C(=O)Nc2cnn(C)c(=O)c2N2CCCCC2)cc1` are -11% and 2.07.
The like results for `O=C(O)[C@H]1C[C@@H](C(=O)Nc2ccc(F)cc2)CN(Cc2ccsc2)C1` were, in that order, -9% and 1.66.
The like results for `CNC(=O)c1ccc(CN(C)CC2(O)CCC(C)CC2)o1` (stereo not given) were, in that order, -1% and 0.13.
On to `O=C(NCc1cccs1)N1CC(F)C1`, for which the “% Inhibition” value is given as -6% and the Z score is 0.9.
In the case of `COc1cccc(-c2nc3sc(-c4cccc(OC)c4)nc3s2)c1`, the “% Inhibition” value is given as -4% and the Z score is 0.57.
The like results for `O=C(CNC(=O)c1cccs1)Nc1ccncc1` were, in that order, 2% and -0.23.
The corresponding values for `O=C(C1=COCCO1)N1CCCc2ccccc21` are -7% and 1.3.
As for `CN1C(=O)C2(OCC(COc3ccc(Cl)cc3)O2)c2ccccc21` (stereo not given), the “% Inhibition” value is on record as -7% and the Z score was found to be 0.78.
With `Cc1c([C@H](C)NC2CCN(c3ccc4c(c3)OCO4)CC2)cnn1-c1ccc(C#N)cc1`, the “% Inhibition” value is listed as -15% and the Z score worked out at 2.7.
The like results for `COC[C@@]12CN(C(C)=O)CC[C@@H]1CN(C(=O)CCc1ccccc1OC)C2` were, in that order, 2% and -0.29.
In the case of `CCOc1ccccc1NC(=O)Cn1nc2c3ccc(F)cc3ncn2c1=O`, the “% Inhibition” value is recorded as 6% and the Z score is on record as -0.94.
The like results for `Cc1ccc2[nH]c([C@H](C(C)C)n3cc(-c4ccc(CO)o4)nn3)nc2c1` were, in that order, -16% and 2.23.
On to `Fc1ccc(Br)c2c1CC[C@@H]2NCCn1ccnc1`, for which the “% Inhibition” value is -11% and the Z score is given as 1.34.
The like results for `CO[C@@H](C)c1ccc(-c2cnc3nnc(C)n3c2)cc1` were, in that order, -3% and 0.47.
The like results for `C=CCOc1ccccc1CN(CC)C(=O)C1CCS(=O)(=O)CC1` were, in that order, -5% and 0.71.
Consider `O=C(Nc1ccc2c(c1)OCO2)C1CCN(C(=O)c2cc3c(s2)CCCCCC3)CC1`, for which the “% Inhibition” value is on record as -9% and the Z score is on record as 1.85.
The corresponding values for `Cc1ccc(CNC(=O)Cn2cnc3c(nnn3C)c2=O)cc1` are -1% and 0.15.
The corresponding values for `C#CCN1CCC(C(=O)N(CC(=O)OCC)C2CCCCC2)CC1` are -12% and 1.35.
The corresponding values for `CC(NC1CCCCC1C)c1nccs1` (stereo not given) are -14% and 2.13.
For the molecule `CCc1cnc(NC[C@@H](CO)Cc2cccs2)nc1`, the “% Inhibition” value is -11% and the Z score is 1.77.
The corresponding values for `COc1cc(CN2CCC[C@H]2C(=O)NCC2CCCCC2)cc(OC)c1O` are 2% and -0.3.
The like results for `CC(C)N1CCC(N(C)CC(=O)N[C@@H](C)c2ccccc2)CC1` were, in that order, -13% and 1.67.
The like results for `Cc1ccc(-c2ccc(C(=O)NCc3cccnc3)o2)cc1Cl` were, in that order, -10% and 1.4.
Regarding `CC[C@H]1CN(C(=O)Cn2cc(C(F)(F)F)ccc2=O)CCO1`, the “% Inhibition” value is given as -9% and the Z score came out at 1.12.
